{"source": "PubChem BioAssay AID1345083", "about": "(National Center for Advancing Translational Sciences (NCATS), 2018)", "note": "The whole screen tested about 94,000 compounds, of which about 6,200 (6.6%) were called active. The shares of active, inactive and inconclusive entries below differ from those in the screen. The call rests on the fitted dose curve; in most records, active means well fitted inhibition curve with a large enough effect; inconclusive means small, poorly fitted or top-dose-only effect; inactive means flat fitted curve, though single readings scatter. Potencies beside an inconclusive call are fits to weak or partial responses and may not hold up. Potency means the concentration at half of the fitted maximal effect; tags describe the fitted curve by direction and shape."}
{"assay": "Cytotoxic Profiling in HEK 293 Cell Line of Diverse Libraries Using Quantitative High-Throughput Screening; further: nearly all actives have a fitted effect of over 60% in size", "settings": "HEK 293 viability, ATP luminescence (CellTiter-Glo), 48-72 h; series mostly up to 115 µM", "method_in_brief": "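Cells seeded first (HEK 293, 250 cells/well), then compound added by pintool. Incubation ran 48 or 72 hr at 37 degree Celsius. CellTiter-Glo was added and luminescence imaged after 10 min at room temperature.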"}
{"smiles": "Cc1cccc(OCCc2noc(C3CCCN3C(=O)Nc3ccccc3)n2)c1", "note": "(stereo not given)", "Potency": "inconclusive: 89.1 µM [inhibitor, single point]"}
{"smiles": "CC1CCC2(CC1)OCC(C(=O)N1CCOCC1)N2C(=O)c1ccc(Cl)c(Cl)c1", "note": "(stereo not given)", "Potency": "inconclusive: 56.2 µM [inhibitor, partial curve, poor fit]"}
{"smiles": "CCc1ccc(CNC(=O)c2cc3n(n2)CC(c2ccc(Cl)cc2)OC3)cc1", "note": "(stereo not given)", "Potency": "inconclusive: 44.7 µM [inhibitor, partial curve, poor fit]"}
{"smiles": "COc1ccc(CNC(=O)CNC(=O)c2ccc(-c3cnc4ccccc4c3)cc2)cc1OC", "Potency": "inconclusive: 63.1 µM [inhibitor, partial curve, poor fit]"}
{"smiles": "COCCN1CCC2(CCC1=O)CCN(C(=O)c1sc(C)nc1C)CC2", "Potency": "inactive"}
{"smiles": "COCc1nnc2n1CCC(NC(=O)CCn1cccn1)CC2", "note": "(stereo not given)", "Potency": "inactive"}
{"smiles": "O=C(C1CCCN1C(=O)Cc1ccccn1)N1CCC(N2Cc3ccccc3C2=O)CC1", "note": "(stereo not given)", "Potency": "inactive"}
{"smiles": "c1ccc2oc([C@H]3CCN(C4CCCCC4)C3)nc2c1", "Potency": "inactive"}
{"smiles": "CNc1ccc(-c2noc([C@@H]3CCCN3Cc3ccccn3)n2)cn1", "Potency": "inactive"}
{"smiles": "CCC1(O)CCC12CCN(C(=O)c1ccc(OC)c(F)c1)CC2", "note": "(stereo not given)", "Potency": "inactive"}
{"smiles": "CCn1c(=O)c2ccnn2c2ccc(C(=O)N3CCN(c4ccccc4)CC3)cc21", "Potency": "inconclusive: 50.1 µM [inhibitor, partial curve, poor fit]"}
{"smiles": "COc1cccc(S(=O)(=O)N2CCCC(Cn3c(C)nc4cccnc43)C2)c1", "note": "(stereo not given)", "Potency": "inconclusive: 44.7 µM [inhibitor, partial curve, poor fit]"}
{"smiles": "COc1cccc(N2CCN(C(=O)C3(c4ccc(NC(C)=O)cc4)CCC3)CC2)c1", "Potency": "inactive"}
{"smiles": "COc1cccc(CNC(=O)CN2C(=O)NC(c3ccc(C)cc3)C3=C2COC3=O)c1OC", "note": "(stereo not given)", "Potency": "inconclusive: 31.6 µM [inhibitor, partial curve]"}
{"smiles": "O=C(N[C@@H]1CN(c2ncccn2)C[C@H]1CO)C1CC=CC1", "Potency": "inactive"}
{"smiles": "CN(C(=O)C(C)(C)C)C1CCc2ccccc21", "note": "(stereo not given)", "Potency": "inconclusive: 112 µM [inhibitor, partial curve, poor fit]"}
{"smiles": "COc1cccc(C(=O)N2C(C(=O)NC3CC3)COC23CCN(C(=O)c2ccc(Cl)cc2)CC3)c1", "note": "(stereo not given)", "Potency": "inconclusive: 89.1 µM [inhibitor, single point]"}
{"smiles": "O=C(NCCc1ccccc1)c1cn2cc(-c3ccc(C(F)(F)F)cc3)sc2n1", "Potency": "inactive"}
{"smiles": "CCN1C(=O)C2(CCN(S(=O)(=O)c3c(C)nn(C)c3C)CC2)c2ccccc21", "Potency": "inconclusive: 89.1 µM [inhibitor, single point]"}
{"smiles": "COc1cccc(CN2CCC(Cc3ncc(C)n3Cc3ccccc3)C2)c1", "note": "(stereo not given)", "Potency": "active: 44.7 µM"}
{"smiles": "CCC1CN(C(=O)c2ccc(C#CC(C)(C)O)o2)CCN1C(C)C", "note": "(stereo not given)", "Potency": "inactive"}
{"smiles": "O=C(Nc1ccccc1)Nc1cccc(-c2nnc3n2CCCC3)c1", "Potency": "inactive"}
{"smiles": "COc1ccc(CC(=O)Nc2ccc3n(c2=O)C[C@H]2C[C@@H]3CN(C(=O)c3ccc4ccccc4c3)C2)cc1", "Potency": "inactive"}
{"smiles": "COc1cc(OC)cc(-c2nn(-c3ccc(C)cc3C)c(OC(C)=O)c2-c2ccc(NC(C)=O)cc2)c1", "Potency": "inconclusive: 39.8 µM [inhibitor, full curve, poor fit]"}
{"smiles": "COc1ccccc1C(=O)N1CCC2(CC1)CC(N(C1CC1)S(C)(=O)=O)CCO2", "note": "(stereo not given)", "Potency": "inconclusive: 50.1 µM [inhibitor, partial curve, poor fit]"}
{"smiles": "O=C(NCc1ccccn1)c1nc2sccn2c1-c1cccc(C(F)(F)F)c1", "Potency": "inconclusive: 50.1 µM [inhibitor, partial curve, poor fit]"}
{"smiles": "CCCc1ccc2oc(C(=O)NCCc3nncn3CC)c(C)c2c1", "Potency": "inconclusive: 22.4 µM [inhibitor, full curve, poor fit]"}
{"smiles": "CN(c1cc(=O)c2ccnc(NCc3ccc4c(c3)OCO4)c2o1)C1CCOCC1", "Potency": "active: 89.1 µM"}
{"smiles": "O=C(CC1CCCN(c2cn[nH]c(=O)c2)C1)N1CCC(Cc2ccccc2)CC1", "note": "(stereo not given)", "Potency": "inconclusive: 50.1 µM [inhibitor, partial curve, poor fit]"}
{"smiles": "COc1ccc(C(=O)N2CCC3(CC2)OC(=O)N(Cc2ccc(O)cc2)C3(C)c2ccccc2)cn1", "note": "(stereo not given)", "Potency": "inconclusive: 89.1 µM [inhibitor, partial curve, poor fit]"}
{"smiles": "c1cc(-c2nc3c(c(NCc4cn5c(n4)SCC5)n2)CCNCC3)ccn1", "Potency": "active: 20 µM"}
{"smiles": "CCc1ccccc1OCC(=O)c1ccc2c(c1)N(CC(=O)Nc1ccc(F)cc1)C(=O)CO2", "Potency": "active: 39.8 µM"}
{"smiles": "CCCN(CC1CCOC1)C(=O)Nc1cc(F)c(F)c(F)c1", "note": "(stereo not given)", "Potency": "inconclusive: 70.8 µM [inhibitor, single point]"}
{"smiles": "Cc1cccc(CC(=O)NC2CCN(c3cc(-c4cccs4)[nH]n3)C2)c1", "note": "(stereo not given)", "Potency": "active: 35.5 µM"}
{"smiles": "Cc1ccc(-c2ccccc2CN2CCN(C(=O)c3ccccc3C)CC2)cc1Cl", "Potency": "inconclusive: 56.2 µM [inhibitor, partial curve, poor fit]"}
{"smiles": "COc1ccc(-c2cccc(C(=O)N3CCN(C(=O)c4cccc(Cl)c4)CC3)c2)nn1", "Potency": "inconclusive: 39.8 µM [inhibitor, partial curve, poor fit]"}
{"smiles": "CC(C)CN1CCN(C(=O)C2CCCN(S(=O)(=O)c3cn(C)cn3)CCC(=O)NCC2)CC1", "note": "(stereo not given)", "Potency": "inactive"}
{"smiles": "CCN1CCN(CC(O)COc2cccc(CNC3(c4ccccc4)CC3)c2)CC1", "note": "(stereo not given)", "Potency": "active: 31.6 µM"}
{"smiles": "O=C(c1[nH]ncc1Cl)N1CCCC(CCc2c(F)cccc2F)C1", "note": "(stereo not given)", "Potency": "inconclusive: 50.1 µM [inhibitor, partial curve, poor fit]"}
{"smiles": "O=C1CCC2(CNC(=O)NCCc3ccccc3)CCCC=C2N1", "note": "(stereo not given)", "Potency": "inactive"}
{"smiles": "CCCc1ccc(S(=O)(=O)N(C)CC2CCOC2)cc1", "note": "(stereo not given)", "Potency": "inconclusive: 31.6 µM [inhibitor, full curve]"}
{"smiles": "COc1ccc(Nc2ccnc(N3CCC(NC(=O)c4ccc(OC)cc4)CC3)n2)cc1", "Potency": "inconclusive: 39.8 µM [inhibitor, full curve, poor fit]"}
{"smiles": "O=C(Cn1ccn2nc(-c3ccccc3)c(CO)c2c1=O)Nc1ccc2c(c1)OCO2", "Potency": "inconclusive: 50.1 µM [inhibitor, partial curve, poor fit]"}
{"smiles": "COc1ccc(-c2nccn2CC(CO)Cc2ccsc2)cc1O", "note": "(stereo not given)", "Potency": "inconclusive: 50.1 µM [inhibitor, partial curve, poor fit]"}
{"smiles": "O=C(c1ccccc1)N1CC(Oc2ccc(F)c(F)c2)C1", "Potency": "inconclusive: 126 µM [inhibitor, single point]"}
{"smiles": "CN(C)c1ccc(C(=O)NC2CCCN(c3cc(-c4ccccc4)[nH]n3)C2)cc1", "note": "(stereo not given)", "Potency": "inconclusive: 28.2 µM [inhibitor, partial curve, poor fit]"}
{"smiles": "Cc1noc(C)c1-c1cc(-c2cccc(CO)c2)cn2cncc12", "Potency": "inconclusive: 79.4 µM [inhibitor, partial curve]"}
{"smiles": "COc1ccccc1Nc1ccnc(N2CCC(C(=O)NCCSC)CC2)n1", "Potency": "inconclusive: 50.1 µM [inhibitor, partial curve, poor fit]"}
{"smiles": "c1ccc(CC2=NOC3(CCN(C4COC4)CC3)C2)cc1", "Potency": "inactive"}
{"smiles": "O=[N+]([O-])c1ccc(CN2C[C@H](O)C[C@H]2c2nc(-c3ccc(C(F)(F)F)cc3)no2)cc1", "Potency": "inconclusive: 70.8 µM [inhibitor, partial curve, poor fit]"}
{"smiles": "Cc1cnc(CCNC(=O)CCc2nc3ccccc3s2)n1C1CC1", "Potency": "inactive"}
{"smiles": "O=C(O)Cn1ccc2cc(OCc3cccc(-c4ccc(F)cc4F)c3)cnc21", "Potency": "inconclusive: 100 µM [inhibitor, partial curve]"}
{"smiles": "O=C(NCc1ccccc1)N1C[C@@H](CO)[C@@H]2Oc3c(F)cccc3[C@@H]21", "Potency": "inconclusive: 89.1 µM [inhibitor, single point]"}
{"smiles": "O=C(NC1C[C@H]2CC[C@@H](C1)N2C(=O)Cc1ccc(Cl)cc1)c1ccncc1", "note": "(stereo not given in full)", "Potency": "inactive"}
{"smiles": "C#CCNC(=O)C1CCCN(Cc2cccc(-c3ccccc3OC)c2)C1", "note": "(stereo not given)", "Potency": "inconclusive: 31.6 µM [inhibitor, partial curve, poor fit]"}
{"smiles": "Cn1ncc2c(C(=O)NCc3ccc(C(F)(F)F)cc3)cc(-c3ccc(F)cc3)nc21", "Potency": "inconclusive: 11.2 µM [inhibitor, partial curve, poor fit]"}
{"smiles": "O=C(Nc1ccc(F)cc1)OC1CN(Cc2ccco2)C(=O)CN(C(=O)c2cccs2)C1", "note": "(stereo not given)", "Potency": "inconclusive: 89.1 µM [inhibitor, single point]"}
{"smiles": "COc1ccc(C(=O)N2CCCC(c3noc(COc4ccccc4)n3)C2)cc1", "note": "(stereo not given)", "Potency": "inconclusive: 44.7 µM [inhibitor, partial curve, poor fit]"}
{"smiles": "CCn1ccc(C(=O)N2CCC(c3nc(-c4cccn4C)no3)CC2)n1", "Potency": "inactive"}
{"smiles": "Cn1ncc2c(C(=O)NCc3cccc(F)c3)cc(-c3ccc(Cl)cc3)nc21", "Potency": "active: 44.7 µM"}
{"smiles": "O=C(Cc1c[nH]c2ccccc12)N1CCc2c(nc(-c3ccc(F)cc3)[nH]c2=O)C1", "Potency": "inconclusive: 44.7 µM [inhibitor, partial curve]"}
{"smiles": "COCCn1c(C)nnc1-c1cc(Nc2cccc(OC)c2)ccn1", "Potency": "inconclusive: 112 µM [inhibitor, partial curve, poor fit]"}
{"smiles": "O=C(Nc1cccc(C(F)(F)F)c1)N[C@H]1CO[C@H]2[C@@H]1OC[C@@H]2n1nnnc1-c1ccc2c(c1)OCO2", "Potency": "active: 39.8 µM"}
{"smiles": "Cc1ncsc1CN1CC(N(Cc2ccccc2)C2CCOCC2)C1", "Potency": "inactive"}
{"smiles": "O=C(NC[C@H]1O[C@@H](CO)[C@@H](O)[C@H]1N1CCN(c2cccc(C(F)(F)F)c2)CC1)c1ccc(C(F)(F)F)cc1", "Potency": "inconclusive: 50.1 µM [inhibitor, partial curve, poor fit]"}
